The record followed here is PMC10604658.

By UniProt entry, the sequences of proteins in these tests, tags left out.
UniProt Q93009: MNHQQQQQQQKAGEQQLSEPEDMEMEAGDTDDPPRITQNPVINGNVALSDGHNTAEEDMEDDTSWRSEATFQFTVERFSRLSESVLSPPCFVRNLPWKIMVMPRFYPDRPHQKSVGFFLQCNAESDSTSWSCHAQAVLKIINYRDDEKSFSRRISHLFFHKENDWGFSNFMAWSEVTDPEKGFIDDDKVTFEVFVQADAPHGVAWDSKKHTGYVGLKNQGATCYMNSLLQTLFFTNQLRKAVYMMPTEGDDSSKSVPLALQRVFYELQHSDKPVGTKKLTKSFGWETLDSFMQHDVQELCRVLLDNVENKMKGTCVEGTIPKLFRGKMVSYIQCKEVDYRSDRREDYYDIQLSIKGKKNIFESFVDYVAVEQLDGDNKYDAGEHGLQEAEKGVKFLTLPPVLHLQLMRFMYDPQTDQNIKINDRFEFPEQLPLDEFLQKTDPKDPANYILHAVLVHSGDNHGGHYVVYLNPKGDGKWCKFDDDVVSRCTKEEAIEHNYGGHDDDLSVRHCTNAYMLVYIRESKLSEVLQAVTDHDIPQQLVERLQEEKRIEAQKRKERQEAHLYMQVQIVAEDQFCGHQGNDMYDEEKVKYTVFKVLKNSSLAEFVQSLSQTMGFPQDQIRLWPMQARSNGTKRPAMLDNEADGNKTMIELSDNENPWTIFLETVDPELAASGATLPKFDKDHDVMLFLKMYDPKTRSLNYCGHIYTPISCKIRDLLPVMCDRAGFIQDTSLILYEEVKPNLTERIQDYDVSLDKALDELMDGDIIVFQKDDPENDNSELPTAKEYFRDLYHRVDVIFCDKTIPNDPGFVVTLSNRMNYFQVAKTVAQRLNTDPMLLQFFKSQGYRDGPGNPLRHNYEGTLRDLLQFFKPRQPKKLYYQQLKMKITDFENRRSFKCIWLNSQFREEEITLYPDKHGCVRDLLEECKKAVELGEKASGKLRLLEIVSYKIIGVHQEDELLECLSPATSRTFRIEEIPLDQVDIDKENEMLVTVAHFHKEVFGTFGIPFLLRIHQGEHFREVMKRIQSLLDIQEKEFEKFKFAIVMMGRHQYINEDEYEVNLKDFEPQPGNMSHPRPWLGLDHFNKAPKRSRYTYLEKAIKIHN
UniProt Q6GQQ9: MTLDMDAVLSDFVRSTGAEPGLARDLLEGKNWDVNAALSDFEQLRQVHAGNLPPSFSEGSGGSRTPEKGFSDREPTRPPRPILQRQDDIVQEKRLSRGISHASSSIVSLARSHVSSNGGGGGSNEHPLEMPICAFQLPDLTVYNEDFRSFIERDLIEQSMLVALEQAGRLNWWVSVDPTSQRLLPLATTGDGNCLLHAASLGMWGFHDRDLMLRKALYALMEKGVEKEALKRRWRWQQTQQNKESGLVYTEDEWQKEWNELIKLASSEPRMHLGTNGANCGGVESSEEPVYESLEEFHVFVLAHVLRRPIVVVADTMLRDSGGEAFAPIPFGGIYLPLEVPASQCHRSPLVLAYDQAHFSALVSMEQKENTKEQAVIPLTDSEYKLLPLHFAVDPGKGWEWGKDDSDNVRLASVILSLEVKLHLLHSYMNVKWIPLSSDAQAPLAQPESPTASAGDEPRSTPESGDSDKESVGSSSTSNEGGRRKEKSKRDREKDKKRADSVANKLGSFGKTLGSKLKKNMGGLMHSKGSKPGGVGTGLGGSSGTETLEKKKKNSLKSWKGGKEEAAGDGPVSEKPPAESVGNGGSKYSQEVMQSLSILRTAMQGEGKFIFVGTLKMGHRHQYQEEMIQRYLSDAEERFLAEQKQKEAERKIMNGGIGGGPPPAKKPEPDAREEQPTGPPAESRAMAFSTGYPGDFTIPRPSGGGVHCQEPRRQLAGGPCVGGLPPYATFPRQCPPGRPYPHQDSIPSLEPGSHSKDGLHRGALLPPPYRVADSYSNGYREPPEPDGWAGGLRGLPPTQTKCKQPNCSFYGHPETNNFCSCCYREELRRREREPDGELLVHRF

One test addresses SFB-USP7 (human) (UniProt Q93009). In words: pull-down; screen: HEK293T cells co-transfected with MYC-ETS2 and each of 59 SFB-tagged human DUBs; DUB pulled down with S-protein agarose beads from NETN lysate (100 mM NaCl, 0.05% NP-40), overnight at 4 °C; bound ETS2 detected by anti-MYC blot.
The target in test [1] is SFB-OTUD7B (human) (UniProt Q6GQQ9). Described as above.
A further test concerns the target T1, SFB-OTUD7A (human) (UniProt Q8TE49).
T1 sequence: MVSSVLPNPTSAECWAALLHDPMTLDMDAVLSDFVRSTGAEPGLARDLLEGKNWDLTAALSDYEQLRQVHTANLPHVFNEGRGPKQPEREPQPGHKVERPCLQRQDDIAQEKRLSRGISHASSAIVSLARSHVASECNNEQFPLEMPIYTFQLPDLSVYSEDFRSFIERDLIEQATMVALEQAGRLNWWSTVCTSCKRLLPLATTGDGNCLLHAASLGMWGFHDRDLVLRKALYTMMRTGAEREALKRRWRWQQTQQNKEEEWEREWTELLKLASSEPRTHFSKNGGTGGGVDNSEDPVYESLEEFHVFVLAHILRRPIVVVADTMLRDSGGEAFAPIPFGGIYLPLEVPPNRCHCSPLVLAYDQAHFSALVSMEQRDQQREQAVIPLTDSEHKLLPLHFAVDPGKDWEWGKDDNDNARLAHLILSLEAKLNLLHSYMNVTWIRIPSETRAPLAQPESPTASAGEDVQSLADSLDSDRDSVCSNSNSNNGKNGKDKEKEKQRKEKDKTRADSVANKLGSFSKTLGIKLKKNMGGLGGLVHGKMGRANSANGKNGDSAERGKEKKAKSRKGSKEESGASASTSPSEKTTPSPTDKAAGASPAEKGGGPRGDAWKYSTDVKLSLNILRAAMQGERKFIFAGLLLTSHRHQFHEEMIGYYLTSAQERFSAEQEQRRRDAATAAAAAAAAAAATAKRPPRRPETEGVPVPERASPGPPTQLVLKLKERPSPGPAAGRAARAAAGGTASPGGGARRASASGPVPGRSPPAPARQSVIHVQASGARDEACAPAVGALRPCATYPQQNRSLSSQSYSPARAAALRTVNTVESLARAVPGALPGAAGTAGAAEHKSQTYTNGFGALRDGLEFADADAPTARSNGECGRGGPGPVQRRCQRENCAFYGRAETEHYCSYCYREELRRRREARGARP
Described as above.

In another test the target is T2, SFB-USP39 (human) (UniProt Q53GS9).
T2 sequence: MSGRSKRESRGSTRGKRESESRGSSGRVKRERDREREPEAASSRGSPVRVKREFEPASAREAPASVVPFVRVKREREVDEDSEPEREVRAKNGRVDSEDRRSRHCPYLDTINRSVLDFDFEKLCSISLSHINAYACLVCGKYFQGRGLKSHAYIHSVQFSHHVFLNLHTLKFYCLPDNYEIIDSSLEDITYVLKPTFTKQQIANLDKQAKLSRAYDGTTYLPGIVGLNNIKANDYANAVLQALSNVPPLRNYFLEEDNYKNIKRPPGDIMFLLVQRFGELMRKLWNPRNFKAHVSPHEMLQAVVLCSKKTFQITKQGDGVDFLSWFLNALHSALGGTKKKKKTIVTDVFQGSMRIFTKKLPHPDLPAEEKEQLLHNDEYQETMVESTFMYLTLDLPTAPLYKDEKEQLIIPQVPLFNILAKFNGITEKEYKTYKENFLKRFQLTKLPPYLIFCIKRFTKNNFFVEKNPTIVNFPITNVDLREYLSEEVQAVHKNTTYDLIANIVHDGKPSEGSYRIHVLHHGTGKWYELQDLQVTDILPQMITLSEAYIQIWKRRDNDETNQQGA
The test is described as above.

In the next test the target is T3, SFB-USP44 (human) (UniProt Q9H0E7).
T3 sequence: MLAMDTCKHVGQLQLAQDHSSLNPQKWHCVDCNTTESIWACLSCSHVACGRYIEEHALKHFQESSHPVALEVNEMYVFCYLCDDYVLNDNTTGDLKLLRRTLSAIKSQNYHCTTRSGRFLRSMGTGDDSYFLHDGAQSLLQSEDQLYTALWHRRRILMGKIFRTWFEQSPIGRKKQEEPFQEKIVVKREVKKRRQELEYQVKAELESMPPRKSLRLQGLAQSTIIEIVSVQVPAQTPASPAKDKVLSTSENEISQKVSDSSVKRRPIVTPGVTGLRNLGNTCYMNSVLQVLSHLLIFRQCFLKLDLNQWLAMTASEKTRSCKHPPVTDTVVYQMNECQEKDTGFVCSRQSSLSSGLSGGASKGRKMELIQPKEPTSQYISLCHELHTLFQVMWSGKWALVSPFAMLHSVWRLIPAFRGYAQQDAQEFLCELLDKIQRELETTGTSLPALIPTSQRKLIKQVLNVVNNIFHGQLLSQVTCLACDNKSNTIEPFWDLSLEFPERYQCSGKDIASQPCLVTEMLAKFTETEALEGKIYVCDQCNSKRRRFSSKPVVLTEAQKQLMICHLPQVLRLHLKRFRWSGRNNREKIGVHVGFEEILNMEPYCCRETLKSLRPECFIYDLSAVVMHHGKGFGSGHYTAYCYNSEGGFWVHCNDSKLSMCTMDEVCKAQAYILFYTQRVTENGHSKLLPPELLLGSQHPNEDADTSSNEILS
Kind of test: pull-down; HEK293T cells co-transfected with MYC-ETS2 (or its mutants) and SFB-DUB (or USP39 mutants); SFB protein pulled down with S-protein agarose beads from NETN lysate, overnight at 4 °C; bound MYC protein detected by anti-MYC blot.

The target in test [2] is SFB-OTUD7B (human) (UniProt Q6GQQ9). The description is as above.

These are yes or no findings as the source states them, for the method shown. Binding seen in cells or lysates may run through a third protein. Some binding calls cover weakened binding; strength is not graded here. Tags and fused reporters may be left off the sequences shown.

B1: MYC-ETS2 (protein, UniProt P15036 1-469)
chain: MNDFGIKNMDQVAPVANSYRGTLKRQPAFDTFDGSLFAVFPSLNEEQTLQEVPTGLDSISHDSANCELPLLTPCSKAVMSQALKATFSGFKKEQRRLGIPKNPWLWSEQQVCQWLLWATNEFSLVNVNLQRFGMNGQMLCNLGKERFLELAPDFVGDILWEHLEQMIKENQEKTEDQYEENSHLTSVPHWINSNTLGFGTEQAPYGMQTQNYPKGGLLDSMCPASTPSVLSSEQEFQMFPKSRLSSVSVTYCSVSQDFPGSNLNLLTNNSGTPKDHDSPENGADSFESSDSLLQSWNSQSSLLDVQRVPSFESFEDDCSQSLCLNKPTMSFKDYIQERSDPVEQGKPVIPAAVLAGFTGSGPIQLWQFLLELLSDKSCQSFISWTGDGWEFKLADPDEVARRWGKRKNKPKMNYEKLSRGLRYYYDKNIIHKTSGKRYVYRFVCDLQNLLGFTPEELHAILGVQPDTED
As to B1, the binding result with SFB-USP7 (human) is “no binding”; in the test with SFB-OTUD7B (human) [1] it was “binds”; with SFB-OTUD7A (human), “binds”; with SFB-USP39 (human) it was “binds”; with SFB-USP44 (human), “binds weakly”; with SFB-OTUD7B (human) [2] it was “binds”.
